Laboratory results reported in PubChem BioAssay AID1508642 (National Center for Advancing Translational Sciences (NCATS), 2021).
About 200 (0.47%) of roughly 43,000 compounds were called active. Inconclusive results (about 12%) are left out. The call rests on the fitted dose curve; in most records, active means well fitted cell-killing curve with a large enough effect; inconclusive means small, poorly fitted or top-dose-only effect, or effect the other way; inactive means flat fitted curve, though single readings scatter. Some of the results follow.
On the % scale 0 is the no-effect control and ±100 the full control effect; potency means the concentration at half of the fitted maximal effect.

Experiment: Cell viability qHTS assay in S16 Pmp22-F2sN cells; further: nearly all actives have a fitted effect of over 65% in size
Details: S16 Pmp22-F2sN Schwann cells (luciferase reporters placed in the Pmp22 gene) viability, CellTiter-Glo, 24 h; series mostly up to 57.5 µM; activity change, negative = cytotoxicity: at the top concentration
Summary of the method: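 Rat S16 Schwann reporter line, 24 h treatment with library compounds delivered at 23 nL per well. Cell viability by CellTiter-Glo luminescence.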
For `COc1ccc(Cn2c(C(=O)O)c(CNC3CCCC3)c3ccc(C)cc32)cc1`, the “activity change, negative = cytotoxicity” value was inactive: 0.875%. For `Cc1ccc(C)c(NC(=O)CSc2c(C)cnc3c2c(=O)n(C)c(=O)n3C)c1`, the “activity change, negative = cytotoxicity” value was inactive: 7.71%. For `O=C(Cn1cnc2nc3c(cc2c1=O)CCCC3)N1CCN(c2cccc(C(F)(F)F)c2)CC1`, the “activity change, negative = cytotoxicity” value was inactive: -4.4%. In the case of `CCOc1ccc(OCC)c(NS(=O)(=O)c2c(C)[nH]c(=O)[nH]c2=O)c1`, the “activity change, negative = cytotoxicity” value is reported as inactive: 17.8%. For `CCOc1ccc(NC(=O)CSc2nc(-c3cccc(Cl)c3)nc3c2Cc2c(CO)cnc(C)c2O3)cc1`, the “activity change, negative = cytotoxicity” value was inactive: -3.95%. For `Cc1ccc(C)c(NC(=O)Cn2ncc3c([nH]c4ccccc43)c2=O)c1`, the “activity change, negative = cytotoxicity” value was inactive: 2.31%. With `COC(=O)c1cc2oc(C)cc2n1Cc1cc(C)ccc1C` the “activity change, negative = cytotoxicity” value was inactive: -4.49%. For `Cc1cccc(NC(=O)CC2Nc3cccc4cccc(c34)NC2=O)c1` (configuration not stated), the “activity change, negative = cytotoxicity” value was inactive: -1.59%. With `Cc1ccccc1CNC(=O)Cn1c(C)c2cnn(-c3ccccc3)c(=O)c2c1C` the “activity change, negative = cytotoxicity” value was inactive: 12.6%. For `CCOC(=O)COc1ccc(/C=C(\C#N)c2nc3ccc(C)cc3[nH]2)cc1OC`, the Potency was active: 8.91 µM. In the case of `CCOC(=O)c1sc(N2C(=O)c3oc4ccccc4c(=O)c3C2c2ccc(C(C)(C)C)cc2)nc1C` (configuration not stated), the “activity change, negative = cytotoxicity” value is reported as inactive: 0.343%. In the case of `CCCCOc1ccc(C(=O)Nc2cc(-c3ccc(C)cc3)no2)cc1`, the “activity change, negative = cytotoxicity” value is reported as inactive: 16.9%. For `Cc1cccc(NC(=O)CSc2nc(-c3cccc(C)c3)nc3c2Cc2c(CO)cnc(C)c2O3)c1`, the “activity change, negative = cytotoxicity” value was inactive: 2.51%. With `CC1(C)Cc2c(c(N3CCOCC3)nc3sc(C(=O)Nc4ccc(Cl)cc4)c(N)c23)CO1` the “activity change, negative = cytotoxicity” value was inactive: 0.654%. With `CCc1nc2ccc(C(=O)NCc3ccc(OC)c(OC)c3)cc2nc1CC` the “activity change, negative = cytotoxicity” value was inactive: 6.81%. For `Cc1ccc2c(c1)-c1onc(C(=O)N(C)c3cccc(C(F)(F)F)c3)c1CO2`, the “activity change, negative = cytotoxicity” value was inactive: 23.4%. For `Cc1cccn2c3c(c(=O)nc12)C(c1cccc(F)c1)CC(=O)N3` (configuration not stated), the “activity change, negative = cytotoxicity” value was inactive: -2.43%. In the case of `CCOc1ccc(NC(=O)c2c(C)nn(-c3ccc(F)cc3)c2-n2cccc2)cc1`, the “activity change, negative = cytotoxicity” value is reported as inactive: 7.05%. In the case of `Cc1cn2c(=O)cc(COc3cccc(NC(=O)c4ccc(C(C)(C)C)cc4)c3)nc2s1`, the “activity change, negative = cytotoxicity” value is reported as inactive: -10.2%. For `CCOC(=O)C1CCN(CC(=O)Nc2cc(C)c3c(=O)oc4ccccc4c3n2)CC1`, the “activity change, negative = cytotoxicity” value was inactive: 11.4%. In the case of `Cc1ccc(NC(=O)CN(C)S(=O)(=O)c2ccc3c(c2)n(C)c(=O)c(=O)n3C)cc1F`, the “activity change, negative = cytotoxicity” value is reported as inactive: -16%. With `Cc1nn(-c2ccccc2)c2nc(C3CC3)cc(C(=O)Nc3ccc(F)cc3)c12` the “activity change, negative = cytotoxicity” value was inactive: 3.23%. In the case of `O=C(Nc1ccc(OCc2cc(=O)n3c4c(sc3n2)CCCC4)cc1)c1cccc(F)c1`, the “activity change, negative = cytotoxicity” value is reported as inactive: 7.8%. With `COc1cccc2cc(S(=O)(=O)c3ccc(F)c(C)c3)c(=O)oc12` the “activity change, negative = cytotoxicity” value was inactive: 0.268%. For `CCOC(=O)c1cc(-c2ccccc2)n(CCC(=O)NCc2ccccc2Cl)c1C`, the “activity change, negative = cytotoxicity” value was inactive: -18.1%. With `COC(=O)c1sc2cccc(F)c2c1S(=O)(=O)N1CCN(c2cccc(OC)c2)CC1` the “activity change, negative = cytotoxicity” value was inactive: -0.687%. In the case of `COc1ccc(Nc2nc3ccccc3nc2NS(=O)(=O)c2ccc(C)cc2)c(OC)c1`, the “activity change, negative = cytotoxicity” value is reported as inactive: -0.322%. With `Cc1nc2nc(SCC(=O)N(C)Cc3ccccc3)nn2c(C)c1Cc1ccccc1Cl` the “activity change, negative = cytotoxicity” value was inactive: -1.34%. In the case of `Fc1ccc(N2CCN(c3nc4ccccc4c4nc(-c5cccnc5)nn34)CC2)cc1`, the “activity change, negative = cytotoxicity” value is reported as inactive: 11.2%. For `Cc1nnc(N2CCCC(C(=O)NCc3ccccc3)C2)c2nn(-c3ccccc3)c(C)c12` (configuration not stated), the “activity change, negative = cytotoxicity” value was inactive: -4.47%. In the case of `CCCCN(C)CCNC(=O)C1CCCN(S(=O)(=O)c2cccc3nsnc23)C1` (configuration not stated), the “activity change, negative = cytotoxicity” value is reported as inactive: 1.64%. For `CCc1ccc(S(=O)(=O)c2cn(C)c3cc(N4CCOCC4)c(F)cc3c2=O)cc1`, the “activity change, negative = cytotoxicity” value was inactive: -0.937%. In the case of `Cc1c(Cl)cccc1-c1ccc(CNCCCSc2nnnn2C)o1`, the “activity change, negative = cytotoxicity” value is reported as inactive: -2.46%. For `O=C1Nc2ccccc2Oc2cc(Oc3cccc(Cl)c3)ccc21`, the “activity change, negative = cytotoxicity” value was inactive: -1.66%. With `O=C(CCn1nc(-c2ccccc2)c2ccccc2c1=O)Nc1ccccc1` the “activity change, negative = cytotoxicity” value was inactive: 1.36%. In the case of `Cc1cccc(C)c1NC(=O)Nc1csc2c1CCCC2`, the “activity change, negative = cytotoxicity” value is reported as inactive: -12.2%. With `Cc1ccc2nc(N(CCCN(C)C)C(=O)c3ccco3)sc2c1` the “activity change, negative = cytotoxicity” value was inactive: 1.8%. In the case of `Cc1ccc(-n2nc(CO)c(C(=O)NCc3ccccn3)n2)cc1`, the “activity change, negative = cytotoxicity” value is reported as inactive: 4.08%. For `COc1ccc(-c2nc(-c3cc4cc(Br)ccc4oc3=O)cs2)cc1`, the “activity change, negative = cytotoxicity” value was inactive: -3.68%. With `COc1ccccc1N1CCN(c2nc3ccccc3n3cnnc23)CC1` the “activity change, negative = cytotoxicity” value was inactive: 0.941%. In the case of `Cc1cc(-c2ccc(C)c(S(=O)(=O)Nc3cccc(C)n3)c2)on1`, the “activity change, negative = cytotoxicity” value is reported as inactive: -7.31%. In the case of `COc1ccc(OCc2ccc(-c3nc(C#N)c(N4CCN(c5ccccc5)CC4)o3)o2)cc1`, the “activity change, negative = cytotoxicity” value is reported as inactive: -14.8%. In the case of `CCc1ccc(-n2nnc(-c3nsc(NC(=O)c4ccccc4Cl)n3)c2C)cc1`, the “activity change, negative = cytotoxicity” value is reported as inactive: -4.5%. With `CCOC(=O)c1cc2c(=O)n3ccccc3nc2n(Cc2ccco2)c1=NC(=O)c1ccc(Br)cc1` the “activity change, negative = cytotoxicity” value was inactive: -11.8%. For `Cc1ccc(NC(=O)c2nnn(Cc3ccccc3)c2N)cc1C`, the “activity change, negative = cytotoxicity” value was inactive: 6.1%. For `O=C(CSc1oc(-c2ccccc2)nc1S(=O)(=O)c1ccc(Br)cc1)c1ccccc1`, the “activity change, negative = cytotoxicity” value was inactive: -17.8%. With `COc1ccc(C)cc1NC(=O)COc1cc(=O)n(C)c2ccccc12` the “activity change, negative = cytotoxicity” value was inactive: 10.7%. For `COc1ccc(NC(=O)c2ccco2)cc1NC(=O)COc1cccc(C)c1C`, the “activity change, negative = cytotoxicity” value was inactive: -6.59%. For `CCc1ccc(NC(=O)CN(C)S(=O)(=O)c2ccc3c(c2)c(=O)n(C)c(=O)n3C)cc1`, the “activity change, negative = cytotoxicity” value was inactive: 4.18%. With `Cc1ccccc1-c1nc(SCC(=O)NCc2ccc(F)cc2)c2c(=O)n(C)c(=O)n(C)c2n1` the “activity change, negative = cytotoxicity” value was inactive: 10.2%. In the case of `COc1ccc(-n2c(SCc3nc(-c4ccc(C)cc4)no3)nnc2-c2ccccc2)cc1`, the “activity change, negative = cytotoxicity” value is reported as inactive: -21.2%. In the case of `CCOC(=O)c1ccc(NC(=O)CN(Cc2ccc(C)cc2)S(=O)(=O)c2ccc(C)cc2)cc1`, the “activity change, negative = cytotoxicity” value is reported as inactive: -20.7%. In the case of `COC(=O)c1nnn(-c2cccc(C)c2)c1N`, the “activity change, negative = cytotoxicity” value is reported as inactive: 5.14%. In the case of `Cc1ccccc1OCC(=O)Nc1ccc2oc(-c3ccc(F)cc3)nc2c1`, the “activity change, negative = cytotoxicity” value is reported as inactive: 7.94%. With `CC1CN(C(=O)Nc2ccc(C(=O)NCc3ccccc3F)cc2)c2ccccc2S1` (configuration not stated) the “activity change, negative = cytotoxicity” value was inactive: -21.6%. For `COC(=O)c1ccc(NC(=O)CSc2n[nH]c(-c3ccccc3)n2)cc1`, the “activity change, negative = cytotoxicity” value was inactive: 13.3%. In the case of `Fc1ccccc1N1CCN(Cc2nnc(-c3ccc4c(c3)OCO4)o2)CC1`, the “activity change, negative = cytotoxicity” value is reported as inactive: -10.3%. With `CCOC(=O)c1ccc(N2C(=O)c3n[nH]c(-c4ccco4)c3C2c2ccc(OC)cc2OC)cc1` (configuration not stated) the “activity change, negative = cytotoxicity” value was inactive: -24.4%. For `CCN(CC)c1ccc(NC(=O)Cn2ncc3c(C)n(Cc4ccccc4F)c(C)c3c2=O)c(C)c1`, the “activity change, negative = cytotoxicity” value was inactive: 1.25%. With `COc1ccc(/C=C/C(=O)Nc2ccc(C)cc2)cc1` the “activity change, negative = cytotoxicity” value was inactive: -2.2%. In the case of `Cc1ccc(NC(=O)Cc2ccc(NC(=O)N3CCCCc4ccccc43)cc2)cc1Cl`, the “activity change, negative = cytotoxicity” value is reported as inactive: -29.3%. In the case of `CCCCOc1ccc(C(=O)NCC(c2ccc(Cl)cc2)N2CCOCC2)cc1` (configuration not stated), the “activity change, negative = cytotoxicity” value is reported as inactive: -2.08%.
